According to PubChem BioAssay AID504339 (National Center for Advancing Translational Sciences (NCATS), 2011):
The campaign covered roughly 390,000 compounds. About 17,000 (4.4%) were called active. This list was built around the results that the source calls inconclusive (neither active nor inactive); the mix of calls is not that of the screen. Calls come from the whole dose curve; as a rule, active = well fitted inhibition curve with a large enough effect; inconclusive = small, poorly fitted or top-dose-only effect; inactive = no such curve, though single readings can be large or run the other way. Potencies beside an inconclusive call are fits to weak or partial responses and may not hold up.

target: Lysine-specific demethylase 4A (Homo sapiens) (UniProt O75164); experiment: qHTS Assay for Inhibitors of JMJD2A-Tudor Domain; settings: AlphaScreen JMJD2A-Tudor / H3K4me3 peptide binding; series mostly up to 114 µM; note: nearly all actives have a fitted effect of over 50% in size
Chain of UniProt O75164 (O75164 whole entry, looked up, the tested form may be a part): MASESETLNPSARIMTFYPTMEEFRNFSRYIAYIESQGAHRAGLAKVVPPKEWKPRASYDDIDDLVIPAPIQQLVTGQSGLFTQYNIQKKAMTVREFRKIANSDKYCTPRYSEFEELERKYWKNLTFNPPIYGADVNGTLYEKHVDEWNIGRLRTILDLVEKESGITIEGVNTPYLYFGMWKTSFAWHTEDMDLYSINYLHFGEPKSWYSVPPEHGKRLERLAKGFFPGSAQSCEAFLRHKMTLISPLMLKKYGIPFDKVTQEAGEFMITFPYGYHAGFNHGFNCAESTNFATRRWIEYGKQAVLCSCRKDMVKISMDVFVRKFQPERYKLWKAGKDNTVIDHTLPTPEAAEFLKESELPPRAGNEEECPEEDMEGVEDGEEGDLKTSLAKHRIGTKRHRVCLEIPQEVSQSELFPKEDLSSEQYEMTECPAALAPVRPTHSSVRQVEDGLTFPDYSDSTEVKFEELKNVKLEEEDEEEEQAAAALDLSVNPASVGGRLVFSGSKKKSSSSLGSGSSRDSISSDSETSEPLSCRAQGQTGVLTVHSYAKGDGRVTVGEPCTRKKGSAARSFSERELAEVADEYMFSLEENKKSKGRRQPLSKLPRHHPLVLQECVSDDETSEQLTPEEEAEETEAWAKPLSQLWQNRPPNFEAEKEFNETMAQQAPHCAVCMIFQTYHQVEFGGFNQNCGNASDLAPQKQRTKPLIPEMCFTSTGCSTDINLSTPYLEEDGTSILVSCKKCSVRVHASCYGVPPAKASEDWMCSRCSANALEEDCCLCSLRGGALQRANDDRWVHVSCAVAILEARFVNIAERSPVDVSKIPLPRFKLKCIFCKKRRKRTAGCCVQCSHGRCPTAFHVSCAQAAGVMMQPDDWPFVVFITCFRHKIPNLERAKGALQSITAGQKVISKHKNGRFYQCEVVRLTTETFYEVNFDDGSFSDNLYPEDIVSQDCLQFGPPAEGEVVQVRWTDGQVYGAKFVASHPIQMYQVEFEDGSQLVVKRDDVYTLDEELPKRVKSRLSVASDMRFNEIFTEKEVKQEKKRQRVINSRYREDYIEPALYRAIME
Potency is the fitted concentration of half-maximal effect; tags give direction and shape of the fitted curve.

Potency, inactive:
CC1CN(C(=O)/C(=C/c2ccco2)NC(=O)c2ccccc2)CC(C)O1 (configuration not stated), O=C(Nc1ccc(S(=O)(=O)NCc2cccnc2)cc1)c1ccco1, Cc1ccccc1CC(=O)Nc1cc(C(C)(C)C)on1, CSc1ccc(CCNC(=O)Cn2ncc3c(=O)oc4ccc(C)cc4c32)cc1, COc1ccc(CNc2ncnc3c2nnn3C)cc1, CCc1ccccc1NC(=O)Cn1nnc(C(=O)Nc2ccc(C)c(F)c2)c1N, COC(=O)c1ccccc1NC(=O)Cc1noc2ccc(C)cc12, O=C(Nc1ccc(Cl)c(Cl)c1)N1CCC(c2ccccc2)C1 (configuration not stated), Cc1nc(Nc2ccccc2)sc1C(=O)Nc1ccccc1, CC(C)c1cnc2c(c1SCc1cccc(C(F)(F)F)c1)c(=O)n(C)c(=O)n2C, CC(C)CN(C(=O)CSc1nnc(-c2cccs2)n1N)c1c(N)n(Cc2ccccc2)c(=O)[nH]c1=O, Cc1ccc(NC(=O)Nc2c[nH]c(=O)[nH]c2=O)c(Cl)c1, Cc1cc(NC(=O)CCc2nc3cccnc3n2Cc2cccs2)ccc1Br

Potency, inconclusive:
CC1=NN(c2ccc(Cl)c(C(=O)O)c2)C(=O)/C1=C\c1ccc(-c2ccc(C(=O)O)cc2)o1 14.1 µM [inhibitor, full curve], O=C(c1cc(-c2cccc(O)c2)on1)N1CCc2ccccc2C1 50.1 µM [inhibitor, partial curve], O=C(Nc1cccc(C(=O)N2CCOCC2)c1)c1cncc(Br)c1 50.1 µM [inhibitor, partial curve], CCn1c(COc2cccc(C)c2)nnc1SCC(=O)NC1CCCC1 25.1 µM [inhibitor, single point], Cc1cc(C)c(NC(=S)NCCCSC2CCCCC2)c(C)c1 50.1 µM [inhibitor, partial curve], CCOC(=O)N1CCN(C(=O)c2ccc(Cn3c(=S)[nH]c4cc5c(cc4c3=O)OCO5)cc2)CC1 56.2 µM [inhibitor, partial curve], COCCCN1CCc2[nH]c(=S)[nH]c(=O)c2C1 25.1 µM [inhibitor, full curve], CC(=O)Nc1ccc(S(=O)(=O)NC(CC(=O)N(C)Cc2ccccc2)C(C)C)cc1 (configuration not stated) 3.55 µM [inhibitor, single point], Cc1ccc(N(CC(=O)N/N=C/c2ccco2)S(=O)(=O)c2ccccc2)cc1 56.2 µM [inhibitor, partial curve], O=C(CSc1ncnc2ccccc12)NCc1ccco1 79.4 µM [inhibitor, single point], CCOc1ccccc1NC(=O)COc1coc(CN2CCc3ccccc32)cc1=O 31.6 µM [inhibitor, full curve], CCOC(=O)NC(=O)CSc1nc(-c2ccc(C)c(C)c2)cn1-c1ccccc1 44.7 µM [inhibitor, partial curve], O=C(Nc1ccccc1Cc1ccccc1)C1CC(=O)N(c2ccc3c(c2)OCCO3)C1 (configuration not stated) 89.1 µM [inhibitor, partial curve], O=C(Nc1ccc(N2CCOCC2)cc1)c1cc2c(s1)CCCC2 50.1 µM [inhibitor, partial curve], CCn1ccnc1CN1CCc2c([nH]c3ccccc23)C1C(C)(C)C (configuration not stated) 50.1 µM [inhibitor, partial curve], O=C(O)c1cn(-c2ccccc2)nc1C(=O)O 79.4 µM [inhibitor, partial curve], O=C(Nc1ccc([N+](=O)[O-])cn1)c1cc(-c2cccc(Cl)c2)nc2ccccc12 50.1 µM [inhibitor, single point], CC/C(C)=N/Nc1nc2c(c(=O)[nH]c(=O)n2C)n1Cc1ccccc1 50.1 µM [inhibitor, partial curve], Cc1cccn2c(=O)cc(COc3cccc(NC(=O)c4ccccc4F)c3)nc12 63.1 µM [inhibitor, partial curve, poor fit], COc1ccc(Br)cc1CNC(=O)CN1CCSc2ccccc21 44.7 µM [inhibitor, partial curve], Cc1cccc(NC(=S)NC(=O)/C=C/c2ccco2)c1 89.1 µM [inhibitor, partial curve, poor fit], CC(=O)Nc1ccc(-c2csc(N/N=C\c3ccncc3)n2)cc1 79.4 µM [inhibitor, partial curve], CC(=O)C[C@H]1c2cc(C(F)(F)F)ccc2S(=O)(=O)N1c1ccc(N(C)C)cc1 79.4 µM [inhibitor, partial curve], CN(CC(=O)O/N=C(\N)c1ccc([N+](=O)[O-])cc1)S(=O)(=O)c1ccccc1 50.1 µM [inhibitor, partial curve], Cc1ccccc1CC1SC(N=C(N)N)=NC1=O (configuration not stated) 25.1 µM [inhibitor, partial curve], CCOc1ccc(/C=C2/SC(=O)NC2=S)cc1 89.1 µM [inhibitor, partial curve], O=C(COC(=O)C1CCN(c2ccc(C(F)(F)F)cn2)CC1)Nc1ccc(F)cc1[N+](=O)[O-] 3.55 µM [inhibitor, full curve, poor fit]

Potency, active:
NOCC(=O)O 22.4 µM, Oc1ccccc1/C=N/n1c(COc2ccccc2)n[nH]c1=S 79.4 µM, CCN(/N=C/c1ccc(Cl)cc1)c1cc(=O)n(C)c(=O)[nH]1 39.8 µM, O=S(c1ccccc1O)S(=O)c1ccccc1O (configuration not stated) 0.794 µM, COc1cccc(CNCc2ccccc2Br)c1OC 1.58 µM, COc1cccc(C2=Nc3cccc4cccc(c34)N2)c1 50.1 µM, Clc1ccc(SCCCCn2ccnc2)cc1 7.94 µM
